According to patent US20120041065A1, “LAURIC ACID DISTILLATE FOR ANIMAL FEED” (CAN TECHNOLOGIES, INC., priority 2010, published 2012):

Tested on: grow-finish pigs
Experiment: Fifth study: growth performance of grow-finish pigs fed HLAD, LA or BMD
Conditions: all treatment diets; 86 to 258 lbs
Protocol: A trial was conducted to evaluate the effect of hydrolyzed lauric acid distillate (HLAD) on growth performance of grow-finish pigs and to evaluate the effectiveness of atypical pen conditions for development of a challenge model. A total of 120 pigs (initial BW: 86 lbs and final BW: 258 lbs) were allotted to one of 6 dietary treatments (10 replicates consisting of five replicates of barrows and five replicates of gilts per treatment with two pigs per replicate). The treatment diets were a 1) control, 2) antibiotic bacitracin methylene disalicylate (BMD), 3) lauric acid (LA) at 0.1%, 4) HLAD at 0.1%, 5) HLAD at 0.2%, and 6) HLAD at 0.4%. Feed intakes and body weights were measured at the end of each of three feeding phase. A challenge of having two pigs per pen along with housing in a dirty room (the room was not cleaned after the previous study was concluded) was used in this trial to see if this could reduce the growth of pigs. The three feeding phases were approximately from 86 lbs to 127 lbs, 127 to 199 lbs, and 199 lbs to 258 lbs. Overall performance (ADG, ADFI, Feed efficiency) and BW at the end of any phase were not affected by diet.

Row | Compound | Overall performance (ADG, ADFI, Feed efficiency) and BW at the end of any phase
1 | CCCCCCCCCCCC(=O)O [LA, lauric acid] | not affected
2 | bacitracin methylene disalicylate [BMD] | not affected
